Assay results reported in article PMC3319807 (Cancer Research, 2012).

Target: T1, His-tagged minimal-binding region of Dmp1 for p53 (M14: amino acids 87–224) (UniProt Q8CE22 87-224)
T1 sequence (looked up): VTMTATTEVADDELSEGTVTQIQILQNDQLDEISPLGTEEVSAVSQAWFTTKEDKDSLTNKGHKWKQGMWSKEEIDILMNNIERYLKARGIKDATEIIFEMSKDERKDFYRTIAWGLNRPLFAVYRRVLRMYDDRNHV
Experiment: co-IP

B1: His-tagged carboxyl-terminal p53 ([…]: Δ1–289) (domain or fragment)
chain: not shown
binding result: binds
